Our source for the binding values is PMC4858292, “Determination of the CD148-Interacting Region in Thrombospondin-1” (PLoS ONE, 2016).

Results are given in words; binding and its absence hold for the method and conditions named. Some binding calls cover weakened binding; strength is not graded here. Tags and fused reporters may be left off the sequences shown.

In test [1] the target is T1, CD148-Fc (CD148 ectodomain fused to Fc region of human IgG) (UniProt Q12913).
T1 sequence: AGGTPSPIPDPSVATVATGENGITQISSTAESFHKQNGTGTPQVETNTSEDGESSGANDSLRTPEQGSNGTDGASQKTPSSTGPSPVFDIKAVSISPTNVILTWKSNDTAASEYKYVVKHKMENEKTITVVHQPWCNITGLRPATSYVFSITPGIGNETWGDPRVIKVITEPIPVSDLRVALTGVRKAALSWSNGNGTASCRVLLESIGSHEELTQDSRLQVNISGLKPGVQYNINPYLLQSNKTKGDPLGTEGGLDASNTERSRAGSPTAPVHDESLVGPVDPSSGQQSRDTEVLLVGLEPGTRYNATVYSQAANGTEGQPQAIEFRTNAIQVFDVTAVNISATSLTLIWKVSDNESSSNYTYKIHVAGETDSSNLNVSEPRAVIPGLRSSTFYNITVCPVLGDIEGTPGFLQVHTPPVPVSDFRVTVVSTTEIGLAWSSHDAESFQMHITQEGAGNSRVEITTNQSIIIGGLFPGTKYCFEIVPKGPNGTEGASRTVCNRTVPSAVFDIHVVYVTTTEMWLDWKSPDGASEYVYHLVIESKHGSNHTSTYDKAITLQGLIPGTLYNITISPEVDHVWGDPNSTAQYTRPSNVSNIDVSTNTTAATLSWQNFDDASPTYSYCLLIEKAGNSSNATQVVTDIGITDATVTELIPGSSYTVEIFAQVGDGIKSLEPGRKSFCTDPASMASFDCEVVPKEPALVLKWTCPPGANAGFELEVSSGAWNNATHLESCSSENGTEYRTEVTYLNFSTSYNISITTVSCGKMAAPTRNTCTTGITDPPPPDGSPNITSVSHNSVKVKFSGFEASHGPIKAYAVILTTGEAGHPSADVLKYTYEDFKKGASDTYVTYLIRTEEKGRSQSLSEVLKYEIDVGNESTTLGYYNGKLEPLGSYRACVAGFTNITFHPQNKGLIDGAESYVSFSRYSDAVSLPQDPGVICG
Description: solid-phase binding assay with AP-fusion protein (AP activity read-out), competition; Protein A-coated plates coated with CD148-Fc (11.3 nM) or equal molar control Fc; pre-incubated with TSP1 fragments or whole TSP1 (25 nM; also 100 nM, S2 Fig) 1 h at 4°C; 12 nM AP-TSP1 with or without fragments overnight at 4°C; HBHA buffer pH 7.0; both purified.

Test [2] has as its target T1, CD148-Fc (CD148 ectodomain fused to Fc region of human IgG). Description: solid-phase binding assay with AP-fusion protein (AP activity read-out), competition; Protein-A plates with CD148-Fc (11.3 nM) or control Fc; AP-TSP1 (12 nM) with indicated doses of monomeric or trimeric TSP1 fragments, as in Fig 1C; compared by molar concentration and by valency; both purified.

Test [3] has the same target. Kind of test: pull-down; TSP1 fragments (17 nM) incubated with CD148-Fc (44 pmol) or equal mole of control Fc for 4 h at 4°C; Fc proteins pulled down with Protein-G sepharose 1 h at 4°C; beads washed with PBS; bound protein by anti-Myc immunoblotting; both purified. In general terms: A western blot detects proteins with antibodies after separation by electrophoresis.
The target is the same in test [4]. Description: pull-down; CD148-Fc pull-down as in Fig 1B, bound fragment detected by colloidal blue stain; data not shown; both purified.

Consider “AP-TSP1 (alkaline phosphatase linked to TSP1) (from UniProt P07996 19-1170) (ligand)”, for which the binding entry in test [1] and in test [2] was “binds” throughout.
On to “Native human TSP1 (from UniProt P07996 19-1170)”, for which the binding entry in test [1] was “binds”.
As for “TSP1 fragment, 1^st type 1 repeat (aa 379–429) (from UniProt P07996 379-429) (domain or fragment)”, the binding result in test [3] was “binds”.
As to “TSP1 fragment, 2^nd & 3^rd type 1 repeats (aa 435–547) (from UniProt P07996 435-547) (domain or fragment)”, the binding entry in test [3] was “no binding (tested: 17 nM)”.
On the same count and under the same terms, as for “TSP1 fragment, amino-terminus (aa 24–221) (from UniProt P07996 24-221) (domain or fragment)”, the entry is “no binding (tested: 17 nM)”; as for “TSP1 fragment, procollagen (aa 316–373) (from UniProt P07996 316-373) (domain or fragment)”, “no binding (tested: 17 nM)”; as for “TSP1 fragment, procollagen + 1^st type 1 repeat (aa316-429) (from UniProt P07996 316-429) (domain or fragment)”, “binds”.
Turning to “TSP1 fragment, procollagen + type 1 repeats (aa 316–547) (from UniProt P07996 316-547) (domain or fragment)”, the binding entry in test [3] and in test [4] was “binds” each time.
With “TSP1 fragment, type 1 repeats (aa 379–547) (from UniProt P07996 379-547) (domain or fragment)”, the binding entry in test [3] is on record as “binds”.
On the same count and under the same terms, the result for “TSP1 fragment, type 2 repeats (aa 548–690) (from UniProt P07996 548-690) (domain or fragment)” reads “no binding (tested: 17 nM)”; that for “TSP1 fragment, type 3 repeats and C-terminus (aa 691–1170) (from UniProt P07996 691-1170) (domain or fragment)”, “no binding (tested: 17 nM)”.

B1: Trimeric TSP1 fragment, oligomerization domain + procollagen + type 1 repeats (aa 261–547) (domain or fragment, human, UniProt P07996 261-547, looked up)
chain: HKTKDLQAICGISCDELSSMVLELRGLRTIVTTLQDSIRKVTEENKELANELRRPPLCYHNGVQYRNNEEWTVDSCTECHCQNSVTICKKVSCPIMPCSNATVPDGECCPRCWPSDSADDGWSPWSEWTSCSTSCGNGIQQRGRSCDSLNNRCEGSSVQTRTCHIQECDKRFKQDGGWSHWSPWSSCSVTCGDGVITRIRLCNSPSPQMNGKPCEGEARETKACKKDACPINGGWGPWSPWDICSVTCGGGVQKRSRLCNNPTPQFGGKDCVGDVTENQICNKQDCP
notes: Subcloned into HindIII and XbaI sites of the APtag-5 vector; also called trimeric TSP1 fragment containing the procollagen domain and type 1 repeats; trimeric TSP1 fragment that contains all three type 1 repeats; source: HEK293E suspension culture, transient transfection, purified from culture supernatant (HisTrap Excel); not shown: Myc, C-terminal, kept
Turning to B1, the binding result in test [2] is listed as “binds”.
